The whole screen tested about 410,000 compounds, of which about 6,400 (1.6%) were called active. The shares of active, inactive and inconclusive entries below differ from those in the screen. Calls follow the shape of the dose curve; as a rule, active = well fitted inhibition curve with a large enough effect; inconclusive = small, poorly fitted or top-dose-only effect; inactive = no such curve, though single readings can be large or run the other way. No potency is given beside an inconclusive call; the fits are too rough.
Each molecule was assayed against Glucagon-like peptide 1 receptor (Homo sapiens) (UniProt P43220) (assay: qHTS of GLP-1 Receptor Inverse Agonists (Inhibition Mode)). Conditions: HEK293 GLP-1R CRE-luciferase, luminescence, 24 h, GLP-1R form is constitutively active; activity change, negative = inhibition: at 38.3 µM (top of the series) unless noted.
Sequence of UniProt P43220 (P43220 whole entry, looked up): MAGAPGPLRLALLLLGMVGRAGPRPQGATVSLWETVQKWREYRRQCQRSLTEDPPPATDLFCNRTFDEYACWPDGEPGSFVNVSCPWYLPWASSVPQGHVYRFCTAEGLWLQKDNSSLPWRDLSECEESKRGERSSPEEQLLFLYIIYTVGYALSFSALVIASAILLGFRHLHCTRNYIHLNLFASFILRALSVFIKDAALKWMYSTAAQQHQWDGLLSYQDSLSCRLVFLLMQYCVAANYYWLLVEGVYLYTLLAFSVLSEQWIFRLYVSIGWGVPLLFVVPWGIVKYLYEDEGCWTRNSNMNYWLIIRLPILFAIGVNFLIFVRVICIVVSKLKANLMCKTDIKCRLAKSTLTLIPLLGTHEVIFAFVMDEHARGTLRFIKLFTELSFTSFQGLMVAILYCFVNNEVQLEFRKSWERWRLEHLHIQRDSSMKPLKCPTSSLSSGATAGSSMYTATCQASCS
Summary of the method: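 Cells are plated, allowed 12 hours at 37 deg C, then treated with compounds for 24 hr before luciferase detection reagent is added and luminescence is read after 12 min at room temperature. The HEK293 line carries constitutively active GLP-1R with a cAMP-responsive reporter.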
COc1cccc(CN2CCNC(=O)C2CC(=O)NC2CCCCCCC2)c1 (configuration not stated) was tested, and the Potency was inconclusive [inhibitor, partial curve, poor fit]. For COc1cc(OC)cc(C(=O)NC(=S)N2CCN(c3ccc(C(F)(F)F)cc3[N+](=O)[O-])CC2)c1, the Potency was inconclusive [inhibitor, partial curve, poor fit]. In the case of CCOC(=O)c1ccc(NC(=S)Nc2cccc(N)n2)cc1, the “activity change, negative = inhibition” value is reported as inactive: -21.9%. Cc1nonc1CC(=O)N1CCCC(C(=O)c2cccc(C(F)(F)F)c2)C1 (configuration not stated) was tested, and the Potency was inconclusive [inhibitor, partial curve, poor fit]. CCCCC1=C(C(=O)OCC)C(C(=O)OCC)Oc2ccccc21 (configuration not stated) was tested, and the Potency was inconclusive [inhibitor, single point]. With Cc1ccc(CN(CC(=O)NCc2ccccn2)S(=O)(=O)c2ccccc2)cc1 the “activity change, negative = inhibition” value was inactive: -27.3%. OC(CN1C2=NCCN2c2ccccc21)c1ccc(Br)cc1 (configuration not stated) was tested, and the Potency was inconclusive [inhibitor, partial curve, poor fit]. In the case of O=C(CCCN1C(=O)/C(=C/c2ccccc2Cl)SC1=S)Nc1cccnc1, the Potency is reported as inconclusive [inhibitor, partial curve, poor fit]. In the case of NC(=O)CSc1nc2scc(-c3ccco3)c2c(=O)n1-c1ccccc1, the “activity change, negative = inhibition” value is reported as inactive: 28.7%. For Cc1cccc(NC(=O)c2onc3c2CCCC3)c1C, the “activity change, negative = inhibition” value was inactive: -35.9%. In the case of CN(C)C(=O)c1ccc(N=Nc2c(O)c3ccccc3[nH]c2=O)cc1, the Potency is reported as inconclusive [inhibitor, single point]. In the case of O=C(CN1CCCC1)N1CCCc2c1c(=O)oc1ccc(OCc3ccccc3)cc21, the Potency is reported as inconclusive [inhibitor, partial curve, poor fit]. CCn1c(CSCc2ccc(Cl)cc2)n[nH]c1=S was tested, and the Potency was inconclusive [inhibitor, partial curve, poor fit]. For CC(C)(C)c1cc(C(=O)N/N=C/c2cc3c(cc2Br)OCO3)n[nH]1, the Potency was inconclusive [inhibitor, partial curve]. For CN(CC(=O)Nc1ccc(OC(F)(F)F)cc1)C(=O)Cc1ccc2c(c1)CCC2, the Potency was active: 5.62 µM. CC(=O)OCC(=O)C1(O)CCC2C3CC(C)C4=CC(=O)C=CC4(C)C3(F)C(O)CC21C (configuration not stated) was tested, and the Potency was inconclusive [inhibitor, full curve, poor fit]. C/C(=N\NC(=O)c1ccc(Cl)cc1)c1ccc(Br)s1 was tested, and the “activity change, negative = inhibition” value was inactive: -5.24%. For Oc1ccc(/C=N/Nc2ccc(C(F)(F)F)cn2)cc1O, the “activity change, negative = inhibition” value was inactive: 20.3%. In the case of Cc1ccc(-n2ncc3c(NC4CCCCC4)ncnc32)cc1C, the Potency is reported as inconclusive [inhibitor, partial curve, poor fit]. With CC(=O)Oc1cc2c(cc1OC(C)=O)C(=O)CCCC2 the “activity change, negative = inhibition” value was inactive: 7.25%. For CCOC(=O)C1(Cc2ccccc2C(F)(F)F)CCN(C2CCC2)CC1, the Potency was inconclusive [inhibitor, partial curve, poor fit]. For CC(C)(C)c1ccc(OCCn2nc(C(=O)O)c3ccccc3c2=O)cc1, the Potency was inconclusive [inhibitor, partial curve, poor fit]. In the case of C/C(=N\NC(=O)CNc1cccc(C)c1)c1ccc(Br)s1, the Potency is reported as inconclusive [inhibitor, partial curve, poor fit]. CCOC(=O)c1cc2c(=O)n3ccccc3nc2n(CCOC)c1=NC(=O)c1c(-c2c(F)cccc2Cl)noc1C was tested, and the Potency was inconclusive [inhibitor, partial curve]. Cc1oc(-c2ccccc2F)nc1CS(=O)(=O)CC(=O)NCCCc1ccccc1 was tested, and the Potency was inconclusive [inhibitor, partial curve, poor fit]. In the case of CCc1ccccc1NC(=S)N=Nc1c(O)n(C)c2ccc(S(=O)(=O)N3CCOCC3)cc12, the Potency is reported as inconclusive [inhibitor, full curve, poor fit]. With CCN(CC)S(=O)(=O)c1cccc(-c2n[nH]c(=S)n2Cc2ccccc2)c1 the “activity change, negative = inhibition” value was inactive: -6.93%. With CC(C)Oc1ccc(S(=O)(=O)N2CCCCC2)cc1NC(=O)CN1CCCC1c1cccs1 (configuration not stated) the Potency was inconclusive [inhibitor, single point]. CCCSc1ccc2nc(-c3ccccc3)cn2c1 was tested, and the Potency was active: 2.51 µM. With CCN(CC)c1ccc(/C=N/Nc2cccc(C)c2)c(O)c1 the Potency was inconclusive [inhibitor, partial curve, poor fit]. CC(C)C[C@@]12C(=O)N(c3cccc(F)c3)C(=O)N1[C@H](c1ccc(Cl)cc1)[C@@H]1C(=O)N(C3CCCCC3)C(=O)[C@@H]12 was tested, and the Potency was inconclusive [inhibitor, partial curve, poor fit]. With CN(CC1CCCN(CCc2cccc(C(F)(F)F)c2)C1)C(=O)c1cc2ccccc2o1 (configuration not stated) the Potency was inconclusive [inhibitor, full curve, poor fit]. In the case of Cc1c(C(=O)NCCC2=CCCCC2)oc2ccc(S(=O)(=O)N3CCOCC3)cc12, the Potency is reported as inconclusive [inhibitor, single point]. Cc1cc2c(cc1S(=O)(=O)NCc1ccc(F)cc1)OCC(=O)N2 was tested, and the “activity change, negative = inhibition” value was inactive: 13.4%. For COc1ccc(-c2c(C#Cc3ccsc3)c3cc(-c4ccc5cc[nH]c5c4)ccc3n2C)cc1, the Potency was inconclusive [inhibitor, partial curve, poor fit]. In the case of CN(C(=O)CCNC(=O)Cn1cnc2ccccc2c1=O)c1ccc(Br)cc1, the “activity change, negative = inhibition” value is reported as inactive: 2.6%. For C=CCc1c(C)nc(C)nc1N/N=C/c1ccccc1O, the Potency was inconclusive [inhibitor, single point]. O=C(C1CC1)N(Cc1ccco1)c1nc(-c2ccccc2)cs1 was tested, and the Potency was inconclusive [inhibitor, single point]. With COc1cccc(CN2CCC2(C)C(=O)NCc2cccc(C(F)(F)F)c2)c1OC (configuration not stated) the Potency was inconclusive [inhibitor, single point]. Cc1nc2c(C)cccc2cc1C(=O)N/N=C/c1cccnc1 was tested, and the “activity change, negative = inhibition” value was inactive: -14%. For CC(C)CC(NC(=O)OC(C)(C)C)c1cn([C@@H](CCCCNC(=O)OC(C)(C)C)C(=O)N2CCN(C(=O)OC(C)(C)C)CC2)nn1 (some centres not stated), the Potency was inconclusive [inhibitor, single point]. With COc1ccccc1OCCNC(=O)C(c1ccccc1)c1ccccc1 the Potency was inconclusive [inhibitor, partial curve, poor fit]. With C/C(=N\Nc1nc(C(=O)O)cs1)c1ccccc1 the “activity change, negative = inhibition” value was inactive: 39.8%. For Cc1cccc(C)c1NC(=O)CCSCCc1ccccn1, the “activity change, negative = inhibition” value was inactive: 19.2%. OCCN1CCN(c2nnc(-c3ccccc3)c3ccccc23)CC1 was tested, and the “activity change, negative = inhibition” value was inactive: -8.64%. With COC(=O)c1[nH]c2ccc(C)cc2c1NC(=O)CN1CCCC(C)(C)C1 the Potency was active: 2.24 µM. In the case of Cc1ccc(S(=O)(=O)NCCC(=O)NC2CCCCCC2)cc1C, the Potency is reported as inconclusive [inhibitor, full curve, poor fit]. In the case of COC(=O)c1ccccc1NC(=O)N1CCN(S(=O)(=O)c2ccc(Cl)cc2)CC1, the Potency is reported as inconclusive [inhibitor, single point]. For Cc1ccc(O)c(CO)n1, the “activity change, negative = inhibition” value was inactive: 30.6%. With CC(=O)c1ccc(NC(=S)NC(C)CCc2ccccc2)cc1 (configuration not stated) the Potency was inconclusive [inhibitor, partial curve, poor fit]. In the case of COc1ccc(CCNC(=O)c2cnc3sc(N4CCCCCC4)nn3c2=O)cc1, the “activity change, negative = inhibition” value is reported as inactive: -5.95%. In the case of Cc1ccc(C(=O)OCc2cc(=O)n3nc(CC(C)C)sc3n2)cc1, the “activity change, negative = inhibition” value is reported as inactive: 4.91%. In the case of COc1cc2c3c(c1)C1(C(=O)N3C(C)(C)C=C2C)C(C#N)=C(N)Oc2cc(O)ccc21 (configuration not stated), the Potency is reported as inconclusive [inhibitor, single point]. In the case of O=C(NCCc1nc2ccccc2n1Cc1ccc(Cl)cc1)c1ccccc1, the Potency is reported as inconclusive [inhibitor, partial curve]. COc1ccc(C)cc1NC(=O)NCCn1nnc2cc(S(=O)(=O)N(C)C)ccc21 was tested, and the “activity change, negative = inhibition” value was inactive: -1.95%. With COc1ccc(O)c(/C=N/NC(=S)Nc2cccc(S(=O)(=O)N(C)C)c2)c1 the Potency was inconclusive [inhibitor, full curve, poor fit]. With CCC1CCCCN1CCCNC(=O)c1ccc2c(c1)N(Cc1cccc(Cl)c1)C(=O)c1ccccc1S2(=O)=O (configuration not stated) the Potency was inconclusive [inhibitor, partial curve, poor fit]. For CCCCCC(C)NC(=S)NC(=O)c1cc(S(=O)(=O)N2CCOCC2)ccc1C (configuration not stated), the Potency was inconclusive [inhibitor, partial curve, poor fit]. Nc1c(N(CCC2=CCCCC2)C(=O)Cc2ccc(F)cc2)c(=O)[nH]c(=O)n1Cc1ccccc1 was tested, and the “activity change, negative = inhibition” value was inactive: -18.9%. COc1ccc(CCNC(=O)c2ccc3c(=O)n4c(nc3c2)CCC4)cc1OC was tested, and the “activity change, negative = inhibition” value was inactive: 19.1%. In the case of C[C@@H](C(=O)Nc1nccs1)N1C(=O)C2CC=CCC2C1=O (some centres not stated), the Potency is reported as inconclusive [inhibitor, partial curve, poor fit]. CN(C)CCC1(C2=CCCC2)CC/C(=C/c2ccc(Cl)cc2)C1=O (configuration not stated) was tested, and the Potency was inconclusive [inhibitor, partial curve, poor fit]. CC(Oc1ccccc1)C(=O)Nc1nnc(S(=O)(=O)N(C)c2ccccc2)s1 (configuration not stated) was tested, and the “activity change, negative = inhibition” value was inactive: -30%. In the case of CCOC(=O)NC(NCCc1ccccc1)(C(F)(F)F)C(F)(F)F, the “activity change, negative = inhibition” value is reported as inactive: -0.621%. For CCN(CC)S(=O)(=O)c1ccc(N/N=C(\C)c2ccc(OC)cc2O)nc1, the Potency was active: 2.51 µM. With COc1ccc(Cl)cc1NC(=O)CSc1nnc(COc2ccccc2)n1N the Potency was inconclusive [inhibitor, partial curve, poor fit]. For Cc1ccc(N2C(=O)CSC23C(=O)N(CC(=O)NCCc2ccccc2)c2ccccc23)cc1 (configuration not stated), the “activity change, negative = inhibition” value was inactive: 2.47%.

Reference: PubChem BioAssay AID624417 (National Center for Advancing Translational Sciences (NCATS), 2012)
% is scaled to controls: 0 for no effect and ±100 for the full control effect; potency is read from the fitted curve at half-maximal effect; tags tell the direction and shape of the fitted curve.
Also: nearly all actives have a fitted effect of over 55% in size.
